The text below walks through data of a collection of fitness landscapes (doi:10.1016/j.celrep.2020.107928).

B1: Caulobacter ParB omega fusion; a variant is named by its letters at X, in order, B8GW30 (parent)
chain: MESVVVGEPGMSEGRRGLGRGLSALLGEVDAAPAQAPGEQLGGSREAPIEILQRNPDQPRRTFREEDLEDLSNSIREKGVLQPILVRPSPDTAGEYQIVAGERAWRAAQRAGLKTVPIMVRELDDLAVLEIGIIENVQRADLNVLEEALSYKVLMEKFERTQENIAQTIGKSXSHVANXMRLLXLPDEVQSYLVSGELTAXHARAIAAAADPVALAKQIIEGGLSVRETEALARKAPNLSAGKSKGGRPPRVKDTDTQALESDLSSVLGLDVSIDHRGSTGTLTITYATLEQLDDLCNRLTRGI

The full ranking holds about 81,000 sequences; the median of “one-hybrid fitness for binding parS DNA” is about -0.17, and the highest 2% start at about 0.51. This is one part of the list.

This experiment covers variants of B1. The experiment can be described thus: one-hybrid fitness for binding parS DNA (scaled: cognate 1, non-cognate 0); higher = stronger binding. The note with it: with parS DNA site. The method in brief: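 On M9-minus-histidine containing 0.1 mM IPTG and 5 mM 3-AT, E. coli USO cells with a HIS3 reporter, site 19 bp from the promoter, grew 48 hours at 37°C to select Caulobacter ParB libraries randomised at four specificity codons. Plasmids from before and after were Illumina-sequenced, with three replicate libraries pooled and variants under 10 reads left out. Fitness is the log change in variant-to-wild-type read ratio, rescaled against cognate and non-cognate.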
As for EIKG, the “one-hybrid fitness for binding parS DNA” value is ≤ 0.2.
On to NMAC, for which the “one-hybrid fitness for binding parS DNA” value is ≤ 0.2.
Regarding LCRS, the “one-hybrid fitness for binding parS DNA” value is ≤ 0.2.
As to PSYA, the “one-hybrid fitness for binding parS DNA” value was ≤ 0.2.
In the case of GEET, the “one-hybrid fitness for binding parS DNA” value was ≤ 0.2.
With NWAS, the “one-hybrid fitness for binding parS DNA” value is ≤ 0.2.
The value for FRRP was ≤ 0.2; that for NNYG was ≤ 0.2.
Regarding GHVM, the “one-hybrid fitness for binding parS DNA” value is ≤ 0.2.
Take HICH: the “one-hybrid fitness for binding parS DNA” value was ≤ 0.2.
The same measure for AYAG: ≤ 0.2; for CEKW: ≤ 0.2; for PQNW: ≤ 0.2.
In the case of RAYW, the “one-hybrid fitness for binding parS DNA” value turned out to be 0.27.
For VCYS, the “one-hybrid fitness for binding parS DNA” value was ≤ 0.2.
GKPS: the “one-hybrid fitness for binding parS DNA” value is ≤ 0.2.
As for VDKN, the “one-hybrid fitness for binding parS DNA” value is ≤ 0.2.
Regarding TPAA, the “one-hybrid fitness for binding parS DNA” value is ≤ 0.2.
The same measure for YLHT: ≤ 0.2; for NELA: ≤ 0.2.
PIVH: the “one-hybrid fitness for binding parS DNA” value is ≤ 0.2.
RQER: the “one-hybrid fitness for binding parS DNA” value is ≤ 0.2.
The same measure for WQEG: ≤ 0.2; for QRFM: ≤ 0.2; for CPNR: ≤ 0.2.
The value for SWTR was ≤ 0.2; that for CKKG was ≤ 0.2; that for RRKY was 0.856.
The same measure for RNYI: ≤ 0.2; for CTSV: ≤ 0.2; for INDT: ≤ 0.2.
As to HRVW, the “one-hybrid fitness for binding parS DNA” value was ≤ 0.2.
As to TFET, the “one-hybrid fitness for binding parS DNA” value was ≤ 0.2.
Regarding NNLY, the “one-hybrid fitness for binding parS DNA” value is ≤ 0.2.
Take YDNW: the “one-hybrid fitness for binding parS DNA” value was ≤ 0.2.
RSQY: the “one-hybrid fitness for binding parS DNA” value turned out to be 0.459.
The same measure for QQYF: ≤ 0.2.
The value for TVDT was ≤ 0.2.
Turning to YGVG, the “one-hybrid fitness for binding parS DNA” value was ≤ 0.2.
Take RIEW: the “one-hybrid fitness for binding parS DNA” value was ≤ 0.2.
As for WTDS, the “one-hybrid fitness for binding parS DNA” value was ≤ 0.2.
As for HLIW, the “one-hybrid fitness for binding parS DNA” value is ≤ 0.2.
Regarding LKQT, the “one-hybrid fitness for binding parS DNA” value is ≤ 0.2.
For VYLS, the “one-hybrid fitness for binding parS DNA” value was ≤ 0.2.
In the case of SERF, the “one-hybrid fitness for binding parS DNA” value was ≤ 0.2.
For KADL, the “one-hybrid fitness for binding parS DNA” value was ≤ 0.2.
On to QKMA, for which the “one-hybrid fitness for binding parS DNA” value is ≤ 0.2.
In the case of KRTH, the “one-hybrid fitness for binding parS DNA” value is ≤ 0.2.
The value for CYEL was ≤ 0.2; that for IPMR was ≤ 0.2.
HGLC: the “one-hybrid fitness for binding parS DNA” value was ≤ 0.2.
The same measure for QISW: ≤ 0.2; for KYRR: ≤ 0.2.
In the case of LDLM, the “one-hybrid fitness for binding parS DNA” value was ≤ 0.2.
The same measure for TGYS: ≤ 0.2; for YDQG: ≤ 0.2; for WFRC: ≤ 0.2.
Take HFSD: the “one-hybrid fitness for binding parS DNA” value is ≤ 0.2.
The value for ARVP was ≤ 0.2; that for MSLA was ≤ 0.2; that for HNNR was ≤ 0.2.
Regarding PEWA, the “one-hybrid fitness for binding parS DNA” value is ≤ 0.2.
On to KRNQ, for which the “one-hybrid fitness for binding parS DNA” value was ≤ 0.2.
With WGQS, the “one-hybrid fitness for binding parS DNA” value is ≤ 0.2.
YSER: the “one-hybrid fitness for binding parS DNA” value was ≤ 0.2.
As for MRTS, the “one-hybrid fitness for binding parS DNA” value was ≤ 0.2.
Take TDLN: the “one-hybrid fitness for binding parS DNA” value is ≤ 0.2.
Turning to MSQG, the “one-hybrid fitness for binding parS DNA” value is ≤ 0.2.
For TTWN, the “one-hybrid fitness for binding parS DNA” value was ≤ 0.2.
As for QPWS, the “one-hybrid fitness for binding parS DNA” value is ≤ 0.2.
Turning to SKVY, the “one-hybrid fitness for binding parS DNA” value is ≤ 0.2.
HMTY: the “one-hybrid fitness for binding parS DNA” value is ≤ 0.2.
The same measure for YCVT: ≤ 0.2; for WQTF: ≤ 0.2.
For the variant RSSK, the “one-hybrid fitness for binding parS DNA” value was ≤ 0.2.
The value for PICE was ≤ 0.2.
